# About 2,300 (1%) of roughly 220,000 compounds were called active. The inconclusive results got no clear call from the source; some entries with a clear call stand among them for comparison. Calls come from the whole dose curve; as a rule, active = well fitted inhibition curve with a large enough effect; inconclusive = small, poorly fitted or top-dose-only effect, or effect the other way; inactive = no such curve, though single readings can be large or run the other way. Potencies of inconclusive entries are left out as doubtful fits.
# Biological target: Neuropeptide S receptor (Homo sapiens) (UniProt Q6W5P4)
# Sequence of UniProt Q6W5P4 (Q6W5P4 whole entry, looked up): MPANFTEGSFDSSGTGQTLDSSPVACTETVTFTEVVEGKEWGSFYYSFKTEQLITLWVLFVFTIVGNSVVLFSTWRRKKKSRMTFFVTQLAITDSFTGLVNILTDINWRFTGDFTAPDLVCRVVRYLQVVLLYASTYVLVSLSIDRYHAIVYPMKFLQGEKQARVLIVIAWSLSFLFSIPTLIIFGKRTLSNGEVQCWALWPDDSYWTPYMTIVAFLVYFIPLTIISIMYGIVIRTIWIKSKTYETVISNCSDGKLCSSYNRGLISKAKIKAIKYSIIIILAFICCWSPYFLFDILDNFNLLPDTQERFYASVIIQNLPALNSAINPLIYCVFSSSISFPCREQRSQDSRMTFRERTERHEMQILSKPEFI
# Assay: qHTS Assay for Antagonists of the Neuropeptide S Receptor: cAMP Signal Transduction; note: nearly all actives have a fitted effect of over 50% in size
# Conditions: CHO-NPSR cells, cAMP TR-FRET, antagonist mode; series mostly up to 38.3 µM
# Potency is the fitted concentration of half-maximal effect; tags give direction and shape of the fitted curve.
row,SMILES,Potency
1,O=C(O)/C(=C\c1ccc(-c2ccc(F)cc2)o1)c1ccccc1,inactive
2,C=CCn1c(SCC(=O)Nc2cc(C)on2)nc2sc(C)c(C)c2c1=O,"inconclusive [inhibitor, single point]"
3,C=CCn1c(SC(C)C(=O)NCc2ccc3c(c2)OCO3)nc2scc(-c3ccccc3)c2c1=O (stereo unspecified),"inconclusive [inhibitor, single point]"
4,CCOC(=O)c1cc(-c2cc3ccccc3o2)nc2c1c(=O)[nH]c(=O)n2CCOC,"inconclusive [inhibitor, single point]"
5,CC(=O)c1c(C)nc(-c2ccc(Cl)cc2)nc1N,inactive
6,O=C(c1ccc(Cl)cc1)c1oc2ccccc2c1CS(=O)(=O)c1ccccc1,"inconclusive [inhibitor, partial curve, poor fit]"
7,COc1ccc(N(CC(=O)Nc2nc3ccc(C)cc3s2)S(=O)(=O)c2c(C)nn(C)c2C)cc1,"inconclusive [inhibitor, partial curve]"
8,COCCOc1nc2c(c(=O)n(C)c(=O)n2C)n1Cc1cccc(OC)c1,inactive
9,Brc1ccccc1C1=Nn2c(nnc2-c2ccccc2)SC1,"inconclusive [inhibitor, single point]"
10,CCOC(=O)c1cnc2ccc(C)cc2c1Nc1ccc(N2CCOCC2)cc1,"inconclusive [inhibitor, full curve]"
11,CC(=O)N(CCC(Cc1ccccc1)c1ccco1)Cc1ccco1 (stereo unspecified),"inconclusive [inhibitor, single point]"
12,Cc1cccc(/C=C2\CCC(=C3SCCCS3)C2=O)c1,"inconclusive [inhibitor, partial curve]"
13,CCNC(=O)c1c(C)nc2ccccn12,"inconclusive [inhibitor, single point]"
14,CCC(C)(C)C1CCc2c(sc(NC(=O)c3ccccc3C(=O)O)c2C#N)C1 (stereo unspecified),"inconclusive [activator, partial curve]"
15,C=CCn1c(SC(C)C(=O)NCCC2=CCCCC2)nc2ccccc2c1=O (stereo unspecified),"inconclusive [inhibitor, partial curve]"
16,CCOC(=O)Cn1nnc2c(sc3nc4c(c(-c5ccccc5)c32)CCC4)c1=O,"inconclusive [inhibitor, single point]"
17,CCn1c(=O)cc(SCC(=O)N2CCN(c3ccccc3F)CC2)c2ccccc21,"inconclusive [inhibitor, single point]"
18,CCN1CC(CN(C)Cc2nc(-c3ccco3)oc2C)CC1=O (stereo unspecified),inactive
19,CC(=O)N1CCN(c2ccc(NC(=O)c3ccc(N4CCCC4)c([N+](=O)[O-])c3)cc2Cl)CC1,inactive
20,CCCCOc1ccc(-c2nnn(CC(=O)NCc3ccco3)n2)cc1,inactive
21,O/N=C(\c1ccc(Cl)cc1)c1ncc(C(F)(F)F)cc1Cl,"inconclusive [inhibitor, single point]"
22,O=C(c1cccnc1)N1N=C(C2CCCCC2)CC1(O)C(F)(F)F (stereo unspecified),inactive
23,CCOc1ccccc1NC(=O)CN1C(=O)COc2ccc(Cl)cc21,"inconclusive [inhibitor, full curve, poor fit]"

row,SMILES,Potency
1,CCOCCCn1c(=NC(=O)c2cccs2)c(C#N)cc2c(=O)n3ccccc3nc21,"inconclusive [inhibitor, single point]"
2,COc1ccccc1[C@@H]1C(c2cccc(Cl)c2)=NN(c2ccccc2)[C@H]1C(=O)N1CCOC1=O,inactive
3,COc1ccccc1-c1nc(-c2ccc(C)nc2OC)no1,inactive
4,Cc1ccc(-c2cc(=O)[nH][nH]2)c(C)c1,inactive
5,CCn1c(SCC(=O)Nc2ccccc2-c2ccccc2)nnc1-c1ccoc1C,"inconclusive [inhibitor, single point]"
6,CC(=O)N(CCC(c1ccccc1)c1ccco1)Cc1cccs1 (stereo unspecified),inactive
7,COc1cccc(-c2nc(N3CCCC3)c3ccccc3n2)c1O,inactive
8,O=C(Cc1cccc2ccccc12)Nc1ccc(OC(F)F)c(Cl)c1,inactive
9,CCOC(=O)Cn1c(=O)oc2cc(S(=O)(=O)NCCCc3ccccc3)ccc21,inactive
10,NS(=O)(=O)c1cccnc1Nc1ccc(Cl)c(Cl)c1,"inconclusive [activator, single point]"
11,Cc1ccc(-c2nnc(N3CCN(C(=O)c4cccs4)CC3)c3ccccc23)cc1,"inconclusive [activator, partial curve]"
12,Cc1cc(=O)oc2cc(OCC(=O)Nc3cccc(S(=O)(=O)N(C)C)c3)ccc12,"inconclusive [inhibitor, single point]"
13,CC1CCN(C(=O)c2ccc3c(Cl)c4c(nc3c2)CCCC4)CC1,inactive
14,C=CCNc1nc(N)c(C(=C(C#N)C#N)c2ccc(Br)cc2)s1,"inconclusive [inhibitor, single point]"
15,Cc1ccccc1CN(c1ccc(C(=O)NCCC2=CCCCC2)cc1)S(C)(=O)=O,"inconclusive [inhibitor, single point]"
16,Cc1cc(C)c(S(=O)(=O)N2CCCC(C(=O)NCCC3=CCCCC3)C2)c(C)c1 (stereo unspecified),"inconclusive [inhibitor, single point]"
17,COc1ccccc1CNC(=O)c1oc2ccc(S(=O)(=O)N3CCCC3)cc2c1C,"inconclusive [inhibitor, partial curve]"
18,O=C(O)/C(=C\c1cn(-c2ccccc2)nc1-c1ccc(Cl)cc1)NC(=O)c1ccccc1,inactive
19,COc1ccccc1-[n+]1c(C)cc(/C=C2\Sc3ccccc3N2C)cc1C,active: 6.31 µM
20,COc1nc(-c2cccs2)cc(-c2ccc(C)cc2)c1C#N,"inconclusive [inhibitor, partial curve]"
21,N#Cc1c(N)nc2c3c(sc(=N)c2c1N)NC(=O)CC3c1ccccc1 (stereo unspecified),"inconclusive [activator, partial curve]"
22,Cc1cc2nc3ccc(=[N+](C)C)cc-3sc2cc1N,"inconclusive [activator, full curve]"
23,Cc1ccc2nc(NC(=S)NC(=O)c3ccc(OC(C)C)cc3)sc2c1,"inconclusive [inhibitor, single point]"
